Variants at the background level are over-represented here.
B1: TPR 5TU (parent)
chain: GGAUCUUCUCGAUCUAACAAAAAAGACAAAUCUGCCACAAAGCUUGAGAGCAUCUUCGGAUGCAGAGGCGGCAGCCUUCGGUGGCGCGAUAGCGCCAACGUUCUCAACUAUGACACGCAAAACGCGUGCUCCGUUGAAUGGAGUUUAUCAUG

Variants of: B1
Experiment: polymerase ribozyme fitness, log enrichment relative to wild type (log ratio); higher = more active; in vitro selection for triplet polymerase activity
How it was run: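 Fitness measures genotype enrichment against wild-type enrichment on a logarithmic scale, with inverse-variance-weighted averaging of replicates. The logarithm is base 2, and genotypes were kept only with ≥10 input reads and ≥1 read per output in Illumina sequencing. The sequenced libraries came from one triplicate in vitro selection round, including frozen incubation at −7 °C, of PCR-built, transcribed mutant libraries of each subunit of a heterodimeric triplet polymerase ribozyme.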

Row | Variant | polymerase ribozyme fitness (log ratio)
1 | C36U U55A C69A G81A C95A A150U | ≤ -4.2
2 | C38U A47U C54A G62C G65A C87G C96A C118A A150G | ≤ -4.2
3 | A37U A52C A91U G124A G141U | ≤ -4.2
4 | C38G U82G C96U A110G U111G G140U | ≤ -4.2
5 | A39C U53A C63U C87G | ≤ -4.2
6 | A37C G67C C87U | ≤ -4.2
7 | A37G A49U C76G U127A G141A U144G | ≤ -4.2
8 | A39G A47C C123U A150G G152A | -3.23
9 | A39G U77A G143C | ≤ -4.2
10 | C38U A40U C75U G86A C108G G124C C132G | ≤ -4.2
11 | C36U A41G G83C G84U C116U | -4.09
12 | C38U A41C C99G U134C U139A | ≤ -4.2
13 | A39C C51A G74A G84A U104A | ≤ -4.2
14 | A37G A49G G59A C69U C87A U101G A107G C118A U148A | ≤ -4.2
15 | C36U G50C G70A U77A G88U U90G G94U G141A | ≤ -4.2
16 | C38U G50A U77C C87G | ≤ -4.2
17 | A39C U55A C118U | -2.2
18 | A37C C43G C93U C96G A97G | ≤ -4.2
19 | C36U C87G U134A | ≤ -4.2
20 | A37G C96A U102A C131U G136U | ≤ -4.2
21 | A39C G46U U55G C99U C116G C125G A138C C149G | ≤ -4.2

Row | Variant | polymerase ribozyme fitness (log ratio)
22 | A37C A52U U101G G143A | ≤ -4.2
23 | C38U C85G G88U C103A G126A | ≤ -4.2
24 | C38G U56A G86U U130A | ≤ -4.2
25 | A39U C43U C85U G117U G126C C132G | ≤ -4.2
26 | A37C C95A A138C G141C | ≤ -4.2
27 | A39G C93A C118G | ≤ -4.2
28 | A39G A89C A97U G126A A147G | ≤ -4.2
29 | A37C A60U U61A G84U C85A C108A C125G | ≤ -4.2
30 | A37U A47C U55A C75G G80C C103A C116G A119U C125A G141C | ≤ -4.2
31 | C38U A41C G88A A137U | ≤ -4.2
32 | A39G G88A C99U A107C C114G U139A | ≤ -4.2
33 | C38U A66G U82A C96U C125A U145A | ≤ -4.2
34 | A39U A52U U77C C79U G94A G136A | ≤ -4.2
35 | A37U A52G C76U C95A | -2.41
36 | C36U G48A C57U G74A G84A C96U G112A G141A | ≤ -4.2
37 | C38U A47C A64C U78G G84C A97C C108U | ≤ -4.2
38 | C36G U44C C57G U78G G94A G117C | ≤ -4.2
39 | C38U A49C C85U G92U C103A U111C U144C | ≤ -4.2
40 | C36G G94A G141C A150G | ≤ -4.2
41 | A37C G86A C103A A120U | ≤ -4.2
42 | A39U A49G G50A C75G C93G C103G C123A | ≤ -4.2

Row | Variant | polymerase ribozyme fitness (log ratio)
43 | C38A U61C U109G U111A U135C | ≤ -4.2
44 | A37G G92U C132U G133A U135G U151C | ≤ -4.2
45 | A37U G68C | ≤ -4.2
46 | A37C C54U A60C U61G C96U C99A G112A A115G | ≤ -4.2
47 | C38U U90G C95A | ≤ -4.2
48 | A39U A66G G88A A107U C114G | ≤ -4.2
49 | C38A G68U C87G G88A U104G G141C | ≤ -4.2
50 | A37C G80C G83A C99A U144A U145C | ≤ -4.2
51 | A39C A49G U56A C99U C105A | ≤ -4.2
52 | C38U A40C G81A A91G C125G | -3.83
53 | A39C G42C G86A C116U C118U | ≤ -4.2
54 | A37U A142G G152U | -4.13
55 | C38A U77G C96U A97G G141C | ≤ -4.2
56 | C36U C63U G84A A98U A142U G143A | ≤ -4.2
57 | C38U A41C G48A C51A G84C G141C | ≤ -4.2
58 | C36U A52G C131G | ≤ -4.2
59 | A39U C43A G50A C72U G86A U101A G117U | ≤ -4.2
60 | C38G A73G C75G C87A U139C G143C | ≤ -4.2
61 | A37U U55A C93G G124A C125G U134G | ≤ -4.2
62 | C38A C72G A73U C87G | ≤ -4.2
63 | A39C G80C | ≤ -4.2

Row | Variant | polymerase ribozyme fitness (log ratio)
64 | A39C U45C U53A G68C G94C C108G G133C G136U | ≤ -4.2
65 | C36G U145A | -3.88
66 | A37G G58C C85A | -3.83
67 | C36U G50U C54U C99U | -4.14
68 | C38G G48A A64C A89C U145G | ≤ -4.2
69 | C38G U78G C93U C114U A120U | ≤ -4.2
70 | C36U G59C C131U | -0.515
71 | A37G A47U G81C C95G U102G A120U U134C U135G A137C | ≤ -4.2
72 | C38A C87U A89G | ≤ -4.2
73 | C38A A52G C79A A120C G124C G133C | ≤ -4.2
74 | A37U G58C A97G C132U | -2.67
75 | C38U U56A G68U A106U C118U G133C | ≤ -4.2
76 | C36U A60G G71U C95G G143A U144C | ≤ -4.2
77 | A39U A47G U53G A73G U82A G86A G128C | ≤ -4.2
78 | A37G U78A C93G C116U | ≤ -4.2
79 | A39U A49C G50U A64C C75U G84C | ≤ -4.2
80 | A37C C51U U61A U78G C95U A98G U130G C131U | ≤ -4.2
81 | A39U A47U G65A C87U A98C A107G G141C G152A | ≤ -4.2
82 | C38U C95A | -1.07
83 | C38U A52G C93G G117U | -3.91
84 | C36U U127G | ≤ -4.2

From the RNAGym collection of RNA variant scans (doi:10.1073/pnas.2313332121)
